US20240076343A1

B1: 1H3-hIgG1-L6-hIL-2 (D20Y/H16E) (protein)
heavy: EVQLVESGGGLVQPGRSLKLSCAVSGFTFSDYAMAWVRQAPKKGLEWVATISYDGSRTYYRDSVKGRFTISRDNAKITLYLQMDSLRSEDTATYYCARHGSGYFDYWGQGVMVTVSS[not shown - about 450 residues with a human IgG1 Fc and changes]
light: DTVLTQSPALAVSPGERVTISCRASESVRTGVHWYQQKPGQQPKLLIYGASNLESGVPARFSGSGSGTDFTLTIDPVEADDTATYFCQQSWNDPFTFGSGTKLEIKRTVAAPSVFIFPPSDEQLKSGTASVVCLLNNFYPREAKVQWKVDNALQSGNSQESVTEQDSKDSTYSLSSTLTLSKADYEKHKVYACEVTHQGLSSPVTKSFNRGEC
B2: 1H3-hIgG1-L6-hIL-2 (R38D/I92D) (protein)
heavy: EVQLVESGGGLVQPGRSLKLSCAVSGFTFSDYAMAWVRQAPKKGLEWVATISYDGSRTYYRDSVKGRFTISRDNAKITLYLQMDSLRSEDTATYYCARHGSGYFDYWGQGVMVTVSS[not shown - about 450 residues with a human IgG1 Fc and changes]
light: B1 light
B3: 1H3-hIgG1-L6-hIL-2 (R38E/I92D) (protein)
heavy: EVQLVESGGGLVQPGRSLKLSCAVSGFTFSDYAMAWVRQAPKKGLEWVATISYDGSRTYYRDSVKGRFTISRDNAKITLYLQMDSLRSEDTATYYCARHGSGYFDYWGQGVMVTVSS[not shown - about 450 residues with a human IgG1 Fc and changes]
light: B1 light
B4: 1H3-hIgG1-L6-hIL-2 (R38E/D84R) (protein)
heavy: EVQLVESGGGLVQPGRSLKLSCAVSGFTFSDYAMAWVRQAPKKGLEWVATISYDGSRTYYRDSVKGRFTISRDNAKITLYLQMDSLRSEDTATYYCARHGSGYFDYWGQGVMVTVSS[not shown - about 450 residues with a human IgG1 Fc and changes]
light: B1 light
B5: 1H3-hIgG1-L6-hIL-2 (R38E/D84K) (protein)
heavy: EVQLVESGGGLVQPGRSLKLSCAVSGFTFSDYAMAWVRQAPKKGLEWVATISYDGSRTYYRDSVKGRFTISRDNAKITLYLQMDSLRSEDTATYYCARHGSGYFDYWGQGVMVTVSS[not shown - about 450 residues with a human IgG1 Fc and changes]
light: B1 light
B6: 1H3-hIgG1-L6-hIL-2 (R38D/E61R/D20A) (protein)
heavy: EVQLVESGGGLVQPGRSLKLSCAVSGFTFSDYAMAWVRQAPKKGLEWVATISYDGSRTYYRDSVKGRFTISRDNAKITLYLQMDSLRSEDTATYYCARHGSGYFDYWGQGVMVTVSS[not shown - human IgG1 constant region]SGGGGSAPTSSSTKKTQLQLEHLLLALQMILNGINNYKNPKLTDMLTFKFYMPKKATELKHLQCLERELKPLEEVLNLAQSKNFHLRPRDLISNINVIVLELKGSETTFMCEYADETATIVEFLNRWITFCQSIISTLT
light: B1 light

molecular target: intermediate affinity hIL-2 receptor complex (IL-2Rβγ) on TF1+IL-2Rβ cells (human) (UniProt P14784); assay: cell-based or functional assay

Q: How did the Fold change from hIL-2 (TF1 + IL-2Rβ) turn out when B1 was run?
A: 4 fold

Q: For B2, which Fold change from hIL-2 (TF1 + IL-2Rβ) is on record?
A: 2 fold

Q: For B3, which Fold change from hIL-2 (TF1 + IL-2Rβ) is on record?
A: 2 fold

Q: With B4 as the binder, how does the Fold change from hIL-2 (TF1 + IL-2Rβ) read?
A: 2 fold

Q: With B5 as the binder, how does the Fold change from hIL-2 (TF1 + IL-2Rβ) read?
A: 2 fold

Q: How did the Fold change from hIL-2 (TF1 + IL-2Rβ) turn out when B6 was run?
A: 3 fold

molecular target: intermediate affinity hIL-2 receptor (hIL-2Rβγ) on TF1+IL-2Rβ cells (human) (UniProt P14784); assay: cell-based or functional assay

Q: Which results are given for B1?
A: Agonistic Activity (TF1 + IL-2Rβ): 80%; Fold change from rhIL-2 (TF1 + IL-2Rβ): 8080 fold

Q: For B2, which Fold change from rhIL-2 (TF1 + IL-2Rβ) is on record?
A: 172 fold

Q: For B3, which Fold change from rhIL-2 (TF1 + IL-2Rβ) is on record?
A: 116 fold

Q: How did the Fold change from rhIL-2 (TF1 + IL-2Rβ) turn out when B4 was run?
A: 147 fold

Q: How did the Fold change from rhIL-2 (TF1 + IL-2Rβ) turn out when B5 was run?
A: 315 fold

Q: How did the Fold change from rhIL-2 (TF1 + IL-2Rβ) turn out when B6 was run?
A: 984 fold

molecular target: intermediate affinity hIL-2 receptor complex (IL-2Rβγ) (human) (UniProt P14784); assay: cell-based or functional assay

Q: With B1 as the binder, how does the Fold change from rhIL-2 (TF1 + IL-2Rβ), pSTAT5 titration read?
A: 2160 fold

Q: For B2, which Agonistic Activity (TF1 + IL-2Rβ), pSTAT5 titration is on record?
A: 80%

Q: And the Fold change from rhIL-2 (TF1 + IL-2Rβ), pSTAT5 titration?
A: 338 fold

Q: How did the Agonistic Activity (TF1 + IL-2Rβ), pSTAT5 titration turn out when B3 was run?
A: 80%

Q: And the Fold change from rhIL-2 (TF1 + IL-2Rβ), pSTAT5 titration?
A: 51 fold

Q: With B4 as the binder, how does the Agonistic Activity (TF1 + IL-2Rβ), pSTAT5 titration read?
A: 80%

Q: What about the Fold change from rhIL-2 (TF1 + IL-2Rβ), pSTAT5 titration of the same binder?
A: 50 fold

Q: B5 was tested. Which Agonistic Activity (TF1 + IL-2Rβ), pSTAT5 titration did it give?
A: 80%

Q: And the Fold change from rhIL-2 (TF1 + IL-2Rβ), pSTAT5 titration?
A: 45 fold

Q: What does the source list for B6?
A: Agonistic Activity (TF1 + IL-2Rβ), pSTAT5 titration: 70%; Fold change from rhIL-2 (TF1 + IL-2Rβ), pSTAT5 titration: 62 fold

molecular target: high-affinity hIL-2 receptor (IL-2Rαβγ) on NK-92 cells (human) (UniProt P01589); assay: cell-based or functional assay

Q: B1 was tested. Which Fold change from hIL-2 (NK-92) did it give?
A: 6 fold

Q: And the Fold change from rhIL-2 (NK-92)?
A: 5 fold

Q: How did the Agonistic Activity (NK-92) turn out when B2 was run?
A: 90%

Q: What about the Fold change from hIL-2 (NK-92) of the same binder?
A: 15 fold

Q: And the Fold change from rhIL-2 (NK-92)?
A: 746 fold

Q: For B3, which Fold change from hIL-2 (NK-92) is on record?
A: 15 fold

Q: What about the Fold change from rhIL-2 (NK-92) of the same binder?
A: 1610 fold

Q: For B4, which Fold change from hIL-2 (NK-92) is on record?
A: 14 fold

Q: What about the Fold change from rhIL-2 (NK-92) of the same binder?
A: > 10000 fold

Q: B5 was tested. Which Agonistic Activity (NK-92) did it give?
A: 70%

Q: What about the Fold change from hIL-2 (NK-92) of the same binder?
A: 14 fold

Q: What about the Fold change from rhIL-2 (NK-92) of the same binder?
A: > 10000 fold

Q: Which Agonistic Activity (NK-92) does the source give for B6 here?
A: 50%

Q: What about the Fold change from hIL-2 (NK-92) of the same binder?
A: 12 fold

Q: What about the Fold change from rhIL-2 (NK-92) of the same binder?
A: > 10000 fold

molecular target: high-affinity hIL-2 receptor (IL-2Rαβγ) (human) (UniProt P01589); assay: cell-based or functional assay

Q: Which Fold change from rhIL-2 (NK-92), pSTAT5 titration does the source give for B1 here?
A: 52 fold

Q: With B2 as the binder, how does the Agonistic Activity (NK-92), pSTAT5 titration read?
A: 80%

Q: And the Fold change from rhIL-2 (NK-92), pSTAT5 titration?
A: > 10000 fold

Q: For B3, which Agonistic Activity (NK-92), pSTAT5 titration is on record?
A: 70%

Q: And the Fold change from rhIL-2 (NK-92), pSTAT5 titration?
A: > 10000 fold

Q: For B4, which Agonistic Activity (NK-92), pSTAT5 titration is on record?
A: 60%

Q: What about the Fold change from rhIL-2 (NK-92), pSTAT5 titration of the same binder?
A: > 10000 fold

Q: With B5 as the binder, how does the Agonistic Activity (NK-92), pSTAT5 titration read?
A: 40%

Q: What about the Fold change from rhIL-2 (NK-92), pSTAT5 titration of the same binder?
A: > 10000 fold

Q: Which Agonistic Activity (NK-92), pSTAT5 titration does the source give for B6 here?
A: 40%

Q: And the Fold change from rhIL-2 (NK-92), pSTAT5 titration?
A: > 10000 fold
